Measured values from PubChem BioAssay AID463173 (ICCB-Longwood Screening Facility, Harvard Medical School, 2010).
Among all 52,000 compounds or so, about 4,300 (8.3%) were called active. Cut-off read from the data, not from the text of the source: active = survival mostly below about 52% (no sharp cut-off); inactive = mostly above about 56%. The list shows a part of the results.

tested on: DeltatarO mutant; assay: growth inhibition of S. aureus wild type versus tarO mutant, primary screen, teichoic acid synthesis inhibitors, RN4220, OD600 (AID 463173); conditions: OD600, 18 h, hits give low values, screened at 18.75 µg/mL (by protocol)

SMILES | survival
COCCCNc1nc2c(-c3ccccc3)nnn2c2ccccc12 | inactive: 78%
CCOCCCn1c(=N)c(C(=O)NCc2ccco2)cc2c(=O)n3ccccc3nc21 | inactive: 67%
COc1ccc(CC(=O)NC2CC(=O)N(c3ccc4c(c3)OCCO4)C2)cc1 (centres undefined) | inactive: 107%
CC(C)NC(=O)c1ccc(Cn2c(=O)c3cccn3c3cccnc32)cc1 | active: 44%
Nc1c(C(=O)Nc2cccc(Cl)c2)sc2nc3c(cc12)CN(Cc1ccccc1)CC3 | inactive: 69%
CCOC(=O)c1c(NC(=O)C(C)Sc2cn(CCNC(=O)c3ccc(OC)c(OC)c3)c3ccccc23)sc2c1CCC2 (centres undefined) | inactive: 127%
CCOCCCn1c(=N)c(S(=O)(=O)c2ccc(C)cc2)cc2c(=O)n3ccccc3nc21 | inactive: 136%
O=c1oc2ccccc2n1CN1CCCCC1 | inactive: 95%
COc1cccc(N2CCN(C(=O)c3c(C)oc4ncnc(N5CCCCC5)c34)CC2)c1 | inactive: 118%
Cc1ccc(-c2nnc(Nc3ccc(O)cc3)c3ccccc23)cc1S(=O)(=O)NCc1nc2ccccc2[nH]1 | inactive: 74%
COc1cccc(-n2c(=O)c3sc4ccccc4c3n(CC(=O)Nc3ccc(F)cc3F)c2=O)c1 | inactive: 64%
Cc1ccoc1C(=O)Nc1ccccc1C(=O)O | inactive: 96%
COc1ccc(N2CC3=C(C2=O)C(c2ccc(Br)cc2)NC(=O)N3C)cc1 (centres undefined) | inactive: 121%
Cc1cc(Nc2sc(C(=O)c3ccc(F)cc3)c(N)c2C(=O)Nc2ccc(F)cc2)ccc1Cl | inactive: 89%
Cc1ccc(Cl)cc1N1CCN(CCCNc2ncnc3onc(-c4ccc(F)cc4)c23)CC1 | inactive: 80%
CC(C)CN(CCCNC(=O)CN1C(=O)COc2ccc(S(=O)(=O)N3CCCCCC3)cc21)CC(C)C | inactive: 109%
COc1cc(NC(=O)CSc2nc(C)c(C(=O)Nc3ccccc3)c(-c3ccc(OC)c(OC)c3)c2C#N)c(OC)cc1Cl | inactive: 61%
COC(=O)c1ccccc1NC(=O)c1cc2nc(-c3ccccc3)cc(-c3ccccc3)n2n1 | inactive: 45%
Cc1cccc(N2CCN(S(=O)(=O)c3ccc4oc(=O)c5ncn(C)c5c4c3)CC2C)c1 (centres undefined) | inactive: 77%
COc1ccc(N(C(=O)COc2c(C)cccc2C)S(=O)(=O)c2ccc(Cl)cc2)cc1 | inactive: 73%
CC(NC(=O)c1ccc(-c2ccccc2)cc1)C(=O)O (centres undefined) | inactive: 97%
Cc1ccccc1C(=O)NCC(c1cccnc1)N1CCc2ccccc21 (centres undefined) | active: 44%
COc1ccc(NC(=O)C2(c3cccs3)CCOCC2)cc1Cl | inactive: 91%
CCOC(=O)c1c(C)sc(-c2c(-c3ccc4c(c3)OCCO4)[nH]c3c2c(=O)[nH]c(=O)n3C)c1O | inactive: 106%
COc1cc(NC(=O)c2ccco2)c(OC)cc1NC(=O)CSc1ncc(-c2ccc(F)cc2)[nH]1 | inactive: 96%
COc1ccccc1NC(=O)CCn1nc(-c2ccccc2)c2ccccc2c1=O | active: 42%
Cc1cc(C)cc(OCc2cc(=O)n3cc(C)sc3n2)c1 | inactive: 81%

SMILES | survival
COc1ccccc1N1CCN(c2nc3ccc(C)cc3nc2-n2nc(C)cc2C)CC1 | active: -5%
Cc1cccc(NCc2nnc3n2CCCCC3)c1C | inactive: 96%
CCCN1CCN(CCCNC(=O)c2ccc3c(c2)sc2nc(-c4ccc(C)cc4)cn23)CC1 | active: 18%
CN(C(=O)c1ccc2c(c1)N(Cc1ccccc1F)C(=O)c1ccccc1S2)C1CCCCC1 | inactive: 94%
CCOC(=O)c1c(C)n(-c2ccccc2)c2ccc(OC(=O)c3ccc(OCC)c(OCC)c3)cc12 | inactive: 136%
Cc1cccc(-c2noc(-c3ccc(NCC4CCCO4)c([N+](=O)[O-])c3)n2)c1 (centres undefined) | inactive: 103%
CCCOc1ccc(OC(=O)c2c(-c3ccccc3Cl)noc2C)cc1 | inactive: 84%
COc1ccc(-c2nn3c(-c4ccc(C)cc4)nnc3c3ccccc23)cc1 | inactive: 77%
COc1cccc(CN2C(=O)c3ccccc3Sc3ccc(C(=O)NCCc4ccc(Cl)cc4)cc32)c1 | inactive: 80%
COc1ccc(NC(=O)c2ccc3c(c2)c(C)c(C)n3Cc2ccc(F)cc2)c(OC)c1 | inactive: 72%
CCc1ccc(OCC(=O)N(Cc2ccco2)Cc2ccco2)cc1 | inactive: 57%
COc1ccc(CNC(=O)CCc2nc3cccnc3n2Cc2ccccc2)cc1 | inactive: 120%
CCOc1ccc(CCNC(=O)C(C)n2nc(C)n3c(cc4occc43)c2=O)cc1OCC (centres undefined) | inactive: 74%
Cc1ccc(Cl)cc1N1CCN(C(=O)c2cn(C)c3ccc(S(=O)(=O)N(C)C4CCCCC4)cc3c2=O)CC1 | inactive: 107%
Cc1ccc(NC(=O)Cn2c(=O)n(CCC(=O)NCCc3ccccc3)c(=O)c3ccccc32)cc1 | inactive: 94%
O=C(Cn1cnc(S(=O)(=O)N2CCCC2)c1)Nc1ccccc1 | inactive: 113%
CC(=O)Nc1ccc(NC(=O)C(Cc2ccccc2)N2Cc3ccccc3C2=O)cc1 (centres undefined) | inactive: 82%
Cc1cccc(N2CCN(C(=O)c3c(C)oc4nc(C)nc(N5CCCC5)c34)CC2C)c1 (centres undefined) | inactive: 95%
COc1cccc(-n2c(SCC(=O)N3CCCCC3)nc3c([nH]c4ccccc43)c2=O)c1 | active: 20%
CN(C)S(=O)(=O)c1ccc2c(c1)N(CC(=O)N1CCCCC1)CCS2 | inactive: 72%
Cc1ccc(-c2nnc(Nc3ccc(Cl)cc3)c3ccccc23)cc1S(=O)(=O)N1CCOCC1 | inactive: 67%
Cn1cc(S(=O)(=O)c2ccccc2)c(=O)c2cc(F)c(N3CCN(c4ccc(F)cc4)CC3)cc21 | inactive: 105%
O=C(Nc1c(C(=O)N2CCC(N3CCCCC3)CC2)oc2ccccc12)c1c(F)cccc1F | inactive: 78%
Cc1cc(C)c2c(-n3cccc3)c(C(=O)NCCCN3CCCCC3)sc2n1 | inactive: 95%
CCN1CCN(Cc2nc3cc(NC(=O)c4ccccc4[N+](=O)[O-])ccc3n2CC)CC1 | inactive: 78%
Cc1ccc(C)c(NC(=O)C2CCN(c3nn4c(=O)cc(C)nc4s3)CC2)c1 | inactive: 106%
COc1ccc(NC(=O)c2ccc3c(c2)c(C)c(C)n3Cc2ccc(F)cc2)cc1 | inactive: 84%
